# Source: the supplement of paper PMC8728848
# Some of the results follow.
# Tests used:
# Assay in all cases: glycan array binding signal (z-score within array); higher = stronger binding
# Conditions in all cases: glycan notation: IUPAC condensed, linker removed
# [1] = target: Neu5Ac(a2-6)Gal(b1-4)GlcNAc(b1-3)Gal(b1-4)GlcNAc(b1-3)GalNAc
# Method in brief: (§1)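 Negative Z-scores can be read as non-binding. The Z-score is calculated within each array and then averaged across arrays of one protein sequence at different concentrations or buffers and across linkers. Arrays, 3228 in all, were curated from the Consortium for Functional Glycomics database and kept only where the protein sequence was available.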
# [2] = target: Neu5Ac(a2-6)Gal(b1-4)GlcNAc(b1-3)Gal(b1-4)GlcNAc(b1-3)[Neu5Ac(a2-6)Gal(b1-4)GlcNAc(b1-3)Gal(b1-4)GlcNAc(b1-6)]GalNAc
# Method in brief: as §1
# [3] = target: Neu5Ac(a2-6)Gal(b1-4)GlcNAc(b1-3)Gal(b1-4)GlcNAc(b1-6)[Gal(b1-3)]GalNAc
# Method in brief: as §1
# [4] = target: Neu5Ac(a2-6)Gal(b1-4)GlcNAc(b1-3)Gal(b1-4)[Fuc(a1-3)]GlcNAc(b1-3)Gal(b1-4)[Fuc(a1-3)]GlcNAc
# Method in brief: as §1
# [5] = target: Neu5Ac(a2-6)Gal(b1-4)GlcNAc(b1-3)GalNAc
# Method in brief: as §1
# [6] = target: Neu5Ac(a2-6)Gal(b1-4)GlcNAc(b1-3)[Neu5Ac(a2-6)Gal(b1-4)GlcNAc(b1-6)]GalNAc
# Method in brief: as §1
# [7] = target: Neu5Ac(a2-6)Gal(b1-4)GlcNAc(b1-6)GalNAc
# Method in brief: as §1
# [8] = target: Neu5Ac(a2-6)Gal(b1-4)GlcNAc(b1-6)[Gal(b1-3)GlcNAc(b1-3)]Gal(b1-4)Glc
# Method in brief: as §1
# [9] = target: Neu5Ac(a2-6)Gal(b1-4)GlcNAc(b1-6)[Gal(b1-3)]GalNAc
# Method in brief: as §1
# [10] = target: Neu5Ac(a2-6)Gal(b1-4)GlcNAc6S
# Method in brief: as §1
# Neu5Ac(a2-6)GalNAc = target: Neu5Ac(a2-6)GalNAc
# Method in brief: as §1
# [11] = target: Neu5Ac(a2-6)GalNAc(b1-4)GlcNAc
# Method in brief: as §1
# [12] = target: Neu5Ac(a2-6)GalNAc(b1-4)GlcNAc6S
# Method in brief: as §1
# [13] = target: Neu5Ac(a2-6)GlcNAc(b1-4)GlcNAc
# Method in brief: as §1
# [14] = target: Neu5Ac(a2-6)GlcNAc(b1-4)GlcNAc(b1-4)GlcNAc
# Method in brief: as §1
# Neu5Ac(a2-8)Neu5Ac = target: Neu5Ac(a2-8)Neu5Ac
# Method in brief: as §1
# [15] = target: Neu5Ac(a2-8)Neu5Ac(a2-3)Gal(b1-3)GalNAc(b1-4)[Neu5Ac(a2-3)]Gal(b1-4)Glc
# Method in brief: as §1
# [16] = target: Neu5Ac(a2-8)Neu5Ac(a2-3)Gal(b1-3)GalNAc(b1-4)[Neu5Ac(a2-8)Neu5Ac(a2-3)]Gal(b1-4)Glc
# Method in brief: as §1
# [17] = target: Neu5Ac(a2-8)Neu5Ac(a2-3)Gal(b1-4)Glc
# Method in brief: as §1
# [18] = target: Neu5Ac(a2-8)Neu5Ac(a2-3)Gal(b1-4)GlcNAc
# Method in brief: as §1
# [19] = target: Neu5Ac(a2-8)Neu5Ac(a2-3)[Gal(b1-3)GalNAc(b1-4)]Gal(b1-4)Glc
# Method in brief: as §1
# [20] = target: Neu5Ac(a2-8)Neu5Ac(a2-3)[GalNAc(b1-4)]Gal(b1-4)Glc
# Method in brief: as §1
# [21] = target: Neu5Ac(a2-8)Neu5Ac(a2-8)Neu5Ac
# Method in brief: as §1
# [22] = target: Neu5Ac(a2-8)Neu5Ac(a2-8)Neu5Ac(a2-3)Gal(b1-4)Glc
# Method in brief: as §1
# [23] = target: Neu5Ac(a2-8)Neu5Ac(a2-8)Neu5Ac(a2-3)[Gal(b1-3)GalNAc(b1-4)]Gal(b1-4)Glc
# Method in brief: as §1
# [24] = target: Neu5Ac(a2-8)Neu5Ac(a2-8)Neu5Ac(a2-3)[GalNAc(b1-4)]Gal(b1-4)Glc
# Method in brief: as §1
# [25] = target: Neu5Ac(a2-8)Neu5Ac(a2-8)Neu5Ac(a2-8)Neu5Ac(a2-3)[GalNAc(b1-4)]Gal(b1-4)Glc
# Method in brief: as §1
# [26] = target: Neu5Ac(a2-8)Neu5Gc(a2-3)Gal(b1-4)GlcNAc
# Method in brief: as §1
# [27] = target: Neu5Ac(b2-6)Gal(b1-4)GlcNAc
# Method in brief: as §1
# Neu5Ac(b2-6)GalNAc = target: Neu5Ac(b2-6)GalNAc
# Method in brief: as §1
# [28] = target: Neu5Ac9Ac(a2-3)Gal(b1-3)GlcNAc
# Method in brief: as §1
# [29] = target: Neu5Ac9Ac(a2-3)Gal(b1-4)GlcNAc
# Method in brief: as §1
# [30] = target: Neu5Ac9Ac(a2-6)Gal(b1-4)GlcNAc
# Method in brief: as §1
# [31] = target: Neu5Gc(a2-3)Gal(b1-3)GlcNAc
# Method in brief: as §1
# [32] = target: Neu5Gc(a2-3)Gal(b1-3)[Fuc(a1-4)]GlcNAc
# Method in brief: as §1
# Neu5Gc(a2-3)Gal(b1-4)Glc = target: Neu5Gc(a2-3)Gal(b1-4)Glc
# Method in brief: as §1
# [33] = target: Neu5Gc(a2-3)Gal(b1-4)GlcNAc
# Method in brief: as §1
# [34] = target: Neu5Gc(a2-3)Gal(b1-4)GlcNAc(b1-3)Gal(b1-4)GlcNAc(b1-2)Man(a1-3)[Neu5Gc(a2-3)Gal(b1-4)GlcNAc(b1-3)Gal(b1-4)GlcNAc(b1-2)Man(a1-6)]Man(b1-4)GlcNAc(b1-4)GlcNAc
# Method in brief: as §1
# [35] = target: Neu5Gc(a2-3)Gal(b1-4)[Fuc(a1-3)]GlcNAc
# Method in brief: as §1
# [36] = target: Neu5Gc(a2-6)Gal(b1-4)GlcNAc
# Method in brief: as §1
# Neu5Gc(a2-6)GalNAc = target: Neu5Gc(a2-6)GalNAc
# Method in brief: as §1
# [37] = target: Neu5Gc(a2-8)Neu5Ac(a2-3)Gal(b1-4)GlcNAc
# Method in brief: as §1
# [38] = target: Neu5Gc(a2-8)Neu5Gc(a2-3)Gal(b1-4)GlcNAc
# Method in brief: as §1
# [39] = target: Neu5Gc(a2-8)Neu5Gc(a2-3)Gal(b1-4)GlcNAc(b1-3)Gal(b1-4)GlcNAc
# Method in brief: as §1
# [40] = target: Neu5Gc(a2-8)Neu5Gc(a2-6)Gal(b1-4)GlcNAc
# Method in brief: as §1
# [41] = target: Neu5Gc(b2-6)Gal(b1-4)GlcNAc
# Method in brief: as §1
binder,measurement,setting,value
PX9937A-bvu-521-23-521 (Bacteroides vulgatus) (protein) LDLAPEDYYGAGNFWKEASQPKAFMLGLHAQLRSYYDMFYTLGELRGGTQRVGTSSLNTSLNYADIRSQNISEDIPGISNWNGLYSPIMQVNHFIQEVENGCTFLDDATRSRYLGQAYGMRALYYFMLYRTFGGVPLITKVDILDGKPSADKFYVERATPEATMEFIKADINKSENYFGNNTSFDAYDWSRYATLMLKAEIYMWAAKVSITGFTATGATDLQTAKTALSGIIGHFELMDNFASIFSCDNKKNTEIIFAMPFIEGEASNDGGRFLYQDAVFLGQAYGRNGKVIEKDTLNLKGTGGVFRDEYTEDFWKTFKEGDSRRDATFMEYYMKNDNGTLSEFGCVMKKRIGTINSNDNRIYISDIPVYRYADALLMMAEIENGLNNPCASYINEVRKRAYGDTFEENKYTEGSYAENELAILQERDKEFVSEGKRWFDVLRMHDASGRSLVFSANANYPGTNPILGTEEAYKMLWPVNIGTLNVNPLLTQTPGYGKK,glycan array binding signal (z-score),[1],-0.174
same,glycan array binding signal (z-score),[2],-0.125
same,glycan array binding signal (z-score),[3],-0.122
same,glycan array binding signal (z-score),[4],-0.13
same,glycan array binding signal (z-score),[5],-0.431
same,glycan array binding signal (z-score),[6],-0.629
same,glycan array binding signal (z-score),[7],-0.654
same,glycan array binding signal (z-score),[8],0.043
same,glycan array binding signal (z-score),[9],0.605
same,glycan array binding signal (z-score),[10],0.278
same,glycan array binding signal (z-score),Neu5Ac(a2-6)GalNAc,-0.345
same,glycan array binding signal (z-score),[11],-0.422
same,glycan array binding signal (z-score),[12],0.342
same,glycan array binding signal (z-score),[13],0.015
same,glycan array binding signal (z-score),[14],-0.187
same,glycan array binding signal (z-score),Neu5Ac(a2-8)Neu5Ac,-0.065
same,glycan array binding signal (z-score),[15],0.037
same,glycan array binding signal (z-score),[16],-0.237
same,glycan array binding signal (z-score),[17],-0.003
same,glycan array binding signal (z-score),[18],-0.615
same,glycan array binding signal (z-score),[19],-0.181
same,glycan array binding signal (z-score),[20],-0.527
same,glycan array binding signal (z-score),[21],-0.086
same,glycan array binding signal (z-score),[22],-0.218
same,glycan array binding signal (z-score),[23],0.429
same,glycan array binding signal (z-score),[24],-0.377
same,glycan array binding signal (z-score),[25],-0.029
same,glycan array binding signal (z-score),[26],10.6
same,glycan array binding signal (z-score),[27],0.159
same,glycan array binding signal (z-score),Neu5Ac(b2-6)GalNAc,-0.058
same,glycan array binding signal (z-score),[28],-0.381
same,glycan array binding signal (z-score),[29],0.442
same,glycan array binding signal (z-score),[30],0.304
same,glycan array binding signal (z-score),[31],-0.007
same,glycan array binding signal (z-score),[32],-0.256
same,glycan array binding signal (z-score),Neu5Gc(a2-3)Gal(b1-4)Glc,-0.197
same,glycan array binding signal (z-score),[33],-0.16
same,glycan array binding signal (z-score),[34],-0.608
same,glycan array binding signal (z-score),[35],0.176
same,glycan array binding signal (z-score),[36],-0.633
same,glycan array binding signal (z-score),Neu5Gc(a2-6)GalNAc,-0.419
same,glycan array binding signal (z-score),[37],-0.159
same,glycan array binding signal (z-score),[38],-0.264
same,glycan array binding signal (z-score),[39],-0.58
same,glycan array binding signal (z-score),[40],-0.482
same,glycan array binding signal (z-score),[41],-0.267
